Experimental data published in US20040053370A1 (Eli Lilly, published 2004).

Biological target: GLP-1 receptor
Test: cell-based or functional assay

Binder	In Vitro Activity (% of Val^8-GLP-1)
Val^8-GLP-1-IgG1 (Fc fusion) HVEGTFTSDVSSYLEGQAAKEFIAWLVKGRGA[omitted - human IgG1 Fc]	1 % of Val^8-GLP-1
Val^8-Glu^22-GLP-1-IgG1 (Fc fusion) HVEGTFTSDVSSYLEEQAAKEFIAWLVKGRGA[omitted - human IgG1 Fc]	3.7 % of Val^8-GLP-1
